Laboratory results from PMC8571081.
Residue numbers refer to the chain shown, from its start. Names and notes keep the numbering of the source. These are yes or no findings as the source states them, for the method shown. For some of these results: In cells and extracts the contact can be indirect. Some results given as binding are weak or reduced against the parent protein; the word gives no strength. For some of these results: Where a sequence is shown, tags or fusion partners need not be part of it. One block for each molecule: values may come before it.

Amino acid sequences for entries named in this document (tags omitted). A change or cut given only in a name is not applied to a line headed by its entry. Chains listed by the source or under a name are the forms on record and can include a tag or linker. Residues count along the entry.
human p40, FLAG-tagged (FLAG-hp40) (P29460, residues 23-328): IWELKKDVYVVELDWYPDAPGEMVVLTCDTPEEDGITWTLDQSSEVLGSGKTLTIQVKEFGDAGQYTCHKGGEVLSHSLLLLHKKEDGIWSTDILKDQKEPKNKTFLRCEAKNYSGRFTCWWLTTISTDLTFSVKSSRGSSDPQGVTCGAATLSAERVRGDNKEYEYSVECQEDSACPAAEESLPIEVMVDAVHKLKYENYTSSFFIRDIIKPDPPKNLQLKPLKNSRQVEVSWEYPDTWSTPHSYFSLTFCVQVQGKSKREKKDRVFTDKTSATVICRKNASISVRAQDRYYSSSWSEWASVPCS
human p40 D36K/W37K/Y38K, FLAG-tagged (P29460, form named): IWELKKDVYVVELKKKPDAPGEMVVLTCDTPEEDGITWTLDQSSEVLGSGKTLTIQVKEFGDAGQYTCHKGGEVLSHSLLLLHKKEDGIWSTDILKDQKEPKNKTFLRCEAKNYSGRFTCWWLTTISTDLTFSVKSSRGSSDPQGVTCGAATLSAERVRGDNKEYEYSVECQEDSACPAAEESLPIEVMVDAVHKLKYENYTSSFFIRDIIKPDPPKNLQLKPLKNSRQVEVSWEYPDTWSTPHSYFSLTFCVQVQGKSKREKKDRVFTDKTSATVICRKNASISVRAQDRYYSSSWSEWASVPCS
UniProt Q5VWK5, residues 24-629: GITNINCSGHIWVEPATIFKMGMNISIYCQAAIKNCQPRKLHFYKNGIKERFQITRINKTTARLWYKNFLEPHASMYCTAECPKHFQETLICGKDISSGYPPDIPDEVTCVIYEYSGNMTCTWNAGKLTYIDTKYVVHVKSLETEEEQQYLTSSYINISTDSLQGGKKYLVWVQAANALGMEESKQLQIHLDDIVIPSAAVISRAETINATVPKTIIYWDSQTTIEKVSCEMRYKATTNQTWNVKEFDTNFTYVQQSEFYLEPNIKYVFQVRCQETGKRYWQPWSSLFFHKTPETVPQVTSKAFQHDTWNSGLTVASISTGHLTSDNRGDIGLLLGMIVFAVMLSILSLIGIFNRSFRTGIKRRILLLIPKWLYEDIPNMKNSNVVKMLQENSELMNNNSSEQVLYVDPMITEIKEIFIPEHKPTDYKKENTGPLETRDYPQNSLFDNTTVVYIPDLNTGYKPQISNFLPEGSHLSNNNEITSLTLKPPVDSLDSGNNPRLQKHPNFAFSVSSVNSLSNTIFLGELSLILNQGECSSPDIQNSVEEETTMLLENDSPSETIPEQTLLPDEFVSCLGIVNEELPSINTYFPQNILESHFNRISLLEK

Assays:
[1] = molecular target: human p40 D36K/W37K/Y38K, FLAG-tagged (human) (UniProt P29460); assay: co-IP; lysates of transiently transfected HEK293T cells (50 mM Tris-HCl pH 7.5, 1 mM EDTA, 150 mM NaCl, 1% Triton X-100) with FLAG-tagged cytokine mixed with lysates with full-length receptor; ANTI-FLAG M2 affinity gel overnight at 4 °C; Western blot
[2] = molecular target: human p40, FLAG-tagged (FLAG-hp40) (human) (UniProt P29460); assay: as above
[3] = molecular target: T1, murine p40 D36K/W37K/T38K, FLAG-tagged (murine) (UniProt P43432); assay: as above
T1 sequence: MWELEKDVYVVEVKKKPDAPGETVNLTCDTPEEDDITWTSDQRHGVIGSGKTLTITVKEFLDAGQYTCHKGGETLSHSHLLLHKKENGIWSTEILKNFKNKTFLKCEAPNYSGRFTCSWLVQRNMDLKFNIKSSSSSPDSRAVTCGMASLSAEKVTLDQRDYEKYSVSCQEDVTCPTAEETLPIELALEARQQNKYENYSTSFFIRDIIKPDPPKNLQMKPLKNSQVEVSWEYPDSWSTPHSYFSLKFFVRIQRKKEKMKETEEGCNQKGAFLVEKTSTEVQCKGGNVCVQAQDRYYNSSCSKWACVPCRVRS

[4] = molecular target: T2, murine IL-23 from FLAG-mp19 coexpressed with mp40 (murine) (UniProt Q9EQ14+P43432); assay: as above
T2 sequence 1: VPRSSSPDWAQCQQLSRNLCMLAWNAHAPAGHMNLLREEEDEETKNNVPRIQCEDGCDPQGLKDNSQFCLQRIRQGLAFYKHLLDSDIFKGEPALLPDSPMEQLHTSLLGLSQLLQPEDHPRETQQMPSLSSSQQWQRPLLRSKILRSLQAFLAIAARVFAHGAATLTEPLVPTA
T2 sequence 2: T1 sequence with K14D, K15W, K16T

[5] = molecular target: T3, murine p40, FLAG-tagged (FLAG-mp40) (murine) (UniProt P43432); assay: as above
T3 sequence: T1 sequence with K14D, K15W, K16T

[6] = molecular target: T4, FLAG-mp19 coexpressed with mp40D36K/W37K/T38K (murine) (UniProt Q9EQ14+P43432); assay: as above
T4 sequence 1: T2 sequence 1
T4 sequence 2: T1 sequence

[7] = molecular target: T5, murine p19, FLAG-tagged (FLAG-mp19) (murine) (UniProt Q9EQ14); assay: co-IP; FLAG-mp19 coexpressed with the mp40 variant in the same cells; ANTI-FLAG M2 affinity gel; the legend's title tells the p19-p40 interaction, the panel on which it rests is not named
T5 sequence: T2 sequence 1

[8] = molecular target: murine p40 D36K/W37K/T38K secreted from CHO-K1 cells (murine) (UniProt P43432); assay: (non-)reducing SDS-PAGE with Western blot; 20 μl conditioned supernatant of transiently transfected CHO-K1 separated under (non-)reducing conditions, mp40-specific antibody; covalently linked homodimer p80
[9] = molecular target: murine p40 (mp40) secreted from CHO-K1 cells (murine) (UniProt P43432); assay: as above

Molecule: human IL-23 receptor (hIL-23R) (from UniProt Q5VWK5 24-629)
binding [1]: no binding
binding [2]: no binding

B1: murine IL-23 receptor (mIL-23R), full-length (receptor, UniProt Q8K4B4 24-644)
chain: GITSINCSGDMWVEPGEIFQMGMNVSIYCQEALKHCRPRNLYFYKNGFKEEFDITRINRTTARIWYKGFSEPHAYMHCTAECPGHFQETLICGKDISSGHPPDAPSNLTCVIYEYSGNMTCTWNTGKPTYIDTKYIVHVKSLETEEEQQYLASSYVKISTDSLQGSRKYLVWVQAVNSLGMENSQQLHVHLDDIVIPSASIISRAETTNDTVPKTIVYWKSKTMIEKVFCEMRYKTTTNQTWSVKEFDANFTYVQQSEFYLEPDSKYVFQVRCQETGKRNWQPWSSPFVHQTSQETGKRNWQPWSSPFVHQTSQTVSQVTAKSSHEPQKMEMLSATIFRGHPASGNHQDIGLLSGMVFLAIMLPIFSLIGIFNRSLRIGIKRKVLLMIPKWLYEDIPNMENSNVAKLLQEKSVFENDNASEQALYVDPVLTEISEISPLEHKPTDYKEERLTGLLETRDCPLGMLSTSSSVVYIPDLNTGYKPQVSNVPPGGNLFINRDERDPTSLETTDDHFARLKTYPNFQFSASSMALLNKTLILDELCLVLNQGEFNSLDIKNSRQEETSIVLQSDSPSETIPAQTLLSDEFVSCLAIGNEDLPSINSYFPQNVLESHFSRISLFQK
binding [3]: no binding
binding [4]: binds
binding [5]: no binding
binding [6]: binds

B5: murine IL-12 receptor β1 (mIL-12Rβ1), full-length (receptor, UniProt Q60837 20-738)
chain: QLGASGPGDGCCVEKTSFPEGASGSPLGPRNLSCYRVSKTDYECSWQYDGPEDNVSHVLWCCFVPPNHTHTGQERCRYFSSGPDRTVQFWEQDGIPVLSKVNFWVESRLGNRTMKSQKISQYLYNWTKTTPPLGHIKVSQSHRQLRMDWNVSEEAGAEVQFRRRMPTTNWTLGDCGPQVNSGSGVLGDIRGSMSESCLCPSENMAQEIQIRRRRRLSSGAPGGPWSDWSMPVCVPPEVLPQAKIKFLVEPLNQGGRRRLTMQGQSPQLAVPEGCRGRPGAQVKKHLVLVRMLSCRCQAQTSKTVPLGKKLNLSGATYDLNVLAKTRFGRSTIQKWHLPAQELTETRALNVSVGGNMTSMQWAAQAPGTTYCLEWQPWFQHRNHTHCTLIVPEEEDPAKMVTHSWSSKPTLEQEECYRITVFASKNPKNPMLWATVLSSYYFGGNASRAGTPRHVSVRNQTGDSVSVEWTASQLSTCPGVLTQYVVRCEAEDGAWESEWLVPPTKTQVTLDGLRSRVMYKVQVRADTARLPGAWSHPQRFSFEVQISRLSIIFASLGSFASVLLVGSLGYIGLNRAAWHLCPPLPTPCGSTAVEFPGSQGKQAWQWCNPEDFPEVLYPRDALVVEMPGDRGDGTESPQAAPECALDTRRPLETQRQRQVQALSEARRLGLAREDCPRGDLAHVTLPLLLGGVTQGASVLDDLWRTHKTAEPGPPTLGQEA
binding [3]: no binding
binding [4]: binds
binding [5]: binds
binding [6]: no binding

Next, values leading:

binding [7]: binds
B2: murine p40 with D36K/W37K/T38K substitutions, coexpressed with FLAG-mp19 (protein, UniProt P43432 23-335)
chain: T1 sequence

binding [8]: binds
B3: murine p40 D36K/W37K/T38K secreted from CHO-K1 cells (protein, UniProt P43432 23-335)
chain: T1 sequence

binding [9]: binds
B4: murine p40 (mp40) secreted from CHO-K1 cells (protein, UniProt P43432 23-335)
chain: T1 sequence with K14D, K15W, K16T
